No constants are given. Whether binding was seen depends on the method and setting. Some binding calls cover weakened binding; strength is not graded here.
T1: N-terminal half of SRFR1 (a.a 1-567), TPR domain, two-hybrid bait (Arabidopsis) (UniProt F4JS25)
T1 sequence: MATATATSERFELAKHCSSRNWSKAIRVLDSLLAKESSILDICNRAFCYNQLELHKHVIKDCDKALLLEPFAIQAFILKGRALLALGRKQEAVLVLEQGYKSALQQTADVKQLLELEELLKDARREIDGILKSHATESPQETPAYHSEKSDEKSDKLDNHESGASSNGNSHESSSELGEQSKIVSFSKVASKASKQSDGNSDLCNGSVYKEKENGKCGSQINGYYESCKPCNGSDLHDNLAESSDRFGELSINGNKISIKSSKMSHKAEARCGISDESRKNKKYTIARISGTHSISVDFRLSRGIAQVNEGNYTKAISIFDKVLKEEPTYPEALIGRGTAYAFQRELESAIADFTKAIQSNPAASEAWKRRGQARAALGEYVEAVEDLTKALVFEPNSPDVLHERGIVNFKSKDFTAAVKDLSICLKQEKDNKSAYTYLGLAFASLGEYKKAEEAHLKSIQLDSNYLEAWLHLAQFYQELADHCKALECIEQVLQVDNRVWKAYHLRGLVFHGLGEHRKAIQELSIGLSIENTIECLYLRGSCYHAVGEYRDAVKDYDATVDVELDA

T2: SRFR1 (SUPPRESSOR OF rps4-RLD), full-length, two-hybrid bait (Arabidopsis) (UniProt F4JS25)
T2 sequence: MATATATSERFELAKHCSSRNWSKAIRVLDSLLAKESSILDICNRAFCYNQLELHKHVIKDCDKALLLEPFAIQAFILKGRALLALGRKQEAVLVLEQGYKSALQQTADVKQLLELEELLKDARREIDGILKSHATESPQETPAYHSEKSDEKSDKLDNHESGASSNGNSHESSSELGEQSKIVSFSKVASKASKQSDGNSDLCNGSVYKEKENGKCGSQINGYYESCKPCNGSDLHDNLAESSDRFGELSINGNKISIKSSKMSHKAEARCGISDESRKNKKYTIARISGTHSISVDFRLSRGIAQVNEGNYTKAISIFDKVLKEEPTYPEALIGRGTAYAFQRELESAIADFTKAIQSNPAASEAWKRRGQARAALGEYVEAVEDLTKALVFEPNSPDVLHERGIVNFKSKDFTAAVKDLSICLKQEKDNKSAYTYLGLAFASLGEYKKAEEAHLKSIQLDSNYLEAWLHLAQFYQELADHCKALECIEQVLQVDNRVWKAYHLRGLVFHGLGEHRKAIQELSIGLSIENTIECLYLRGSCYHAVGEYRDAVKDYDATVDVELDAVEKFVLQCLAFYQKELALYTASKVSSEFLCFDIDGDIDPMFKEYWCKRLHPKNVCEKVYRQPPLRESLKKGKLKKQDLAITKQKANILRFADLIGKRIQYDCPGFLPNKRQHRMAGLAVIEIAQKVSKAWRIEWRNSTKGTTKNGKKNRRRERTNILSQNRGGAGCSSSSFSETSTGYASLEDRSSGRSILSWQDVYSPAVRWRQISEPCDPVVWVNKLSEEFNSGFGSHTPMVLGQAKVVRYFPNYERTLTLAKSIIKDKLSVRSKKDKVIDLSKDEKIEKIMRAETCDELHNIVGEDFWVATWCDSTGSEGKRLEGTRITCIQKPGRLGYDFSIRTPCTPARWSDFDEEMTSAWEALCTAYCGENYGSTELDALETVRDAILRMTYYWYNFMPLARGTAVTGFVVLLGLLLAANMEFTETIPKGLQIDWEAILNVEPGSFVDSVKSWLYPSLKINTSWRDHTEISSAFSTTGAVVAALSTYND

T3: C-terminal half of SRFR1 (a.a. 568-1052), two-hybrid bait (Arabidopsis) (UniProt F4JS25)
T3 sequence: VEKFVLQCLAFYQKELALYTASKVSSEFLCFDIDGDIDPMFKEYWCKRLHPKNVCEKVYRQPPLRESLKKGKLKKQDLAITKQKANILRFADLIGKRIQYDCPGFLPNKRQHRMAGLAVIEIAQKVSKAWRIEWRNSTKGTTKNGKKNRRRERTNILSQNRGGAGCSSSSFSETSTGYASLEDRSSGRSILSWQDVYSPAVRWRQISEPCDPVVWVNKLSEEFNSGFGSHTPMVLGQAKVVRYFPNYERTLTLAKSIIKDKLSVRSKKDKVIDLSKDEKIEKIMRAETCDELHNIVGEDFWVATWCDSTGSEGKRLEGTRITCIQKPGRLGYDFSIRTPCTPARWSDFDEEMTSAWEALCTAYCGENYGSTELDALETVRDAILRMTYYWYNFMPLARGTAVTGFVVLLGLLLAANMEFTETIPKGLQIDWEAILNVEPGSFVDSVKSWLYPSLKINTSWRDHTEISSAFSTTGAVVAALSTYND


Experiments:
[1] = molecular target: T1, N-terminal half of SRFR1 (a.a 1-567), TPR domain, two-hybrid bait (Arabidopsis); assay: two-hybrid; yeast growth assay: SRFR1 constructs in pGBKT7 (bait) and SGT1 constructs in pGADT7 (prey) co-transformed into strain Y1348; diluted cultures plated on SD-Leu-Trp and SD-Leu-Trp-His
[2] = molecular target: T1, N-terminal half of SRFR1 (a.a 1-567), TPR domain, two-hybrid bait (Arabidopsis); assay: two-hybrid; β-Gal assays in yeast (data not shown)
[3] = molecular target: T2, SRFR1 (SUPPRESSOR OF rps4-RLD), full-length, two-hybrid bait (Arabidopsis); assay: two-hybrid; β-Gal assays in yeast (data not shown)
[4] = molecular target: T2, SRFR1 (SUPPRESSOR OF rps4-RLD), full-length, two-hybrid bait (Arabidopsis); assay: two-hybrid; library screen: full-length SRFR1 in pGBKT7 as bait, Arabidopsis prey library in pGADT7, yeast strain Y1348, selection on SD-Leu-Trp-His with 3 mM 3AT (data not shown)
[5] = molecular target: T3, C-terminal half of SRFR1 (a.a. 568-1052), two-hybrid bait (Arabidopsis); assay: two-hybrid; yeast growth assay: SRFR1 constructs in pGBKT7 (bait) and SGT1 constructs in pGADT7 (prey) co-transformed into strain Y1348; diluted cultures plated on SD-Leu-Trp and SD-Leu-Trp-His
[6] = molecular target: T2, SRFR1 (SUPPRESSOR OF rps4-RLD), full-length, two-hybrid bait (Arabidopsis); assay: as above

| Binder | binding [1] | binding [2] | binding [3] | binding [4] | binding [5] | binding [6] |
| --- | --- | --- | --- | --- | --- | --- |
| SGT1a_(121-351), two-hybrid prey (domain or fragment, UniProt Q9SUR9 121-350) EKDLVQPVPSTLPSSVTAPPVSELDVTPTAKYRHEYYQKPEEVVVTVFAKGIPKQNVNIDFGEQILSVVIEVPGEDAYYLQPRLFGKIIPDKCKYEVLSTKIEICLAKADIITWASLEHGKGPAVLPKPNVSSEVSQRPAYPSSKKVKDWDKLEAEVKKQEKDEKLEGDAALNKFFREIYQNADEDMRRAMSKSFVESNGTVLSTNWQEVGTKTIESTPPDGMELKKWEI | no binding |  |  |  |  |  |
| SGT1b (library cDNA clone encoding amino acid 6-358), two-hybrid prey (protein, UniProt Q9SUT5 6-358) AEKAKEAFLDDDFDVAVDLYSKAIDLDPNCAAFFADRAQANIKIDNFTEAVVDANKAIELEPTLAKAYLRKGTACMKLEEYSTAKAALEKGASVAPNEPKFKKMIDECDLRIAEEEKDLVQPMPPSLPSSSTTPLATEADAPPVPIPAAPAKPMFRHEFYQKPEEAVVTIFAKKVPKENVTVEFGEQILSVVIDVAGEEAYHLQPRLFGKIIPEKCRFEVLSTKVEIRLAKAEIITWASLEYGKGQSVLPKPNVSSALSQRPVYPSSKPAKDWDKLEAEVKKQEKDEKLDGDAAMNKFFSDIYSSADEDMRRAMNKSFAESNGTVLSTNWKEVGTKKVESTPPDGMELKKWEY | binds | binds | binds | binds | no binding | binds |
| N-terminal half of SRFR1 (a.a 1-567), TPR domain, two-hybrid bait (domain or fragment, UniProt F4JS25-1 1-567) MATATATSERFELAKHCSSRNWSKAIRVLDSLLAKESSILDICNRAFCYNQLELHKHVIKDCDKALLLEPFAIQAFILKGRALLALGRKQEAVLVLEQGYKSALQQTADVKQLLELEELLKDARREIDGILKSHATESPQETPAYHSEKSDEKSDKLDNHESGASSNGNSHESSSELGEQSKIVSFSKVASKASKQSDGNSDLCNGSVYKEKENGKCGSQINGYYESCKPCNGSDLHDNLAESSDRFGELSINGNKISIKSSKMSHKAEARCGISDESRKNKKYTIARISGTHSISVDFRLSRGIAQVNEGNYTKAISIFDKVLKEEPTYPEALIGRGTAYAFQRELESAIADFTKAIQSNPAASEAWKRRGQARAALGEYVEAVEDLTKALVFEPNSPDVLHERGIVNFKSKDFTAAVKDLSICLKQEKDNKSAYTYLGLAFASLGEYKKAEEAHLKSIQLDSNYLEAWLHLAQFYQELADHCKALECIEQVLQVDNRVWKAYHLRGLVFHGLGEHRKAIQELSIGLSIENTIECLYLRGSCYHAVGEYRDAVKDYDATVDVELDA | no binding |  |  |  |  |  |

Second part, the binder after the results:

| binding [1] | binding [2] | binding [3] | binding [4] | binding [5] | binding [6] | Binder |
| --- | --- | --- | --- | --- | --- | --- |
| binds | binds |  |  |  |  | SGT1b_(1-120), two-hybrid prey (domain or fragment, UniProt Q9SUT5 1-120) MAKELAEKAKEAFLDDDFDVAVDLYSKAIDLDPNCAAFFADRAQANIKIDNFTEAVVDANKAIELEPTLAKAYLRKGTACMKLEEYSTAKAALEKGASVAPNEPKFKKMIDECDLRIAEE |
| no binding |  |  |  |  |  | SGT1b_(121-358), two-hybrid prey (domain or fragment, UniProt Q9SUT5 121-358) EKDLVQPMPPSLPSSSTTPLATEADAPPVPIPAAPAKPMFRHEFYQKPEEAVVTIFAKKVPKENVTVEFGEQILSVVIDVAGEEAYHLQPRLFGKIIPEKCRFEVLSTKVEIRLAKAEIITWASLEYGKGQSVLPKPNVSSALSQRPVYPSSKPAKDWDKLEAEVKKQEKDEKLDGDAAMNKFFSDIYSSADEDMRRAMNKSFAESNGTVLSTNWKEVGTKKVESTPPDGMELKKWEY |

Source: paper PMC2940742
